Consider 27 variants from the RNAGym collection of RNA variant scans (doi:10.1101/gad.245936.114).

The chains are these.
B1: tRNA (parent)
chain: CUCUCGGUAGCCAAGUUGGUUUAAGGCGCAAGACUUUAAUUUAUCACUACGAAAUCUUGAGAUCGGGCGUUCGACUCGCCCCCGGGAGAUUUUUUCCUCGAGCAA

Variants at the background level are over-represented here.

The variants in this data set derive from B1. The data set is described as follows: nonsense suppression (GFP-seq) (ratio to wild type); higher = more function; SUP4oc tRNA, yeast GFP reporter sort-seq. In outline: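 Yeast carrying genome-integrated SUP4oc tRNA variants from a library with ~3% random mutations were grown in raffinose/galactose medium with 80 mg/L adenine. Each strain also carried a galactose-driven GFP ochre reporter and RFP. Cells were sorted into GFP/RFP bins, and each bin was Illumina-sequenced (phred ≥30). Nonsense suppression (GFPSEQ) is the bin median GFP/RFP, weighted by each variant's estimated cell share per bin, relative to wild-type SUP4oc; variants needed ≥100 reads and ≥30 cells.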
Turning to CUCUCGGUAGCAAAGUUGGUUUAAGGGGCAAGACUUUAAUUUAUCACUACGAACUCUUGAGAUCGGGCGUUCGACUCGCCCCCGGGAGAUUUUUUCCUCGAGCAA, the nonsense suppression was at most 0.026.

Turning to CUCUCGGUAGCCAAGUUGGUUUAAGGCGCGAGACUUUAAUUUAUCACUACGAAAUCUUGAAAUCCGGCGUUGGACUCGCCACCGGGAGAUUUUUUCCUCGAGCAA, the nonsense suppression is at most 0.026. Consider CUCUCGGUAGCCAAGUUGGUUUAAGGCGCAAGACUUUAAUUUAUCACUACGAAAUAUUGAGAUCGGGCGUACGACUCGCCCCCGGGAGAUUUUUUCCUCGAGCAA, for which the nonsense suppression was at most 0.026. Turning to CUCUCGAUAGCCAAGUUGGUGUAAGGCGCAAGACUUUAAUUUAUCACUACGAAAUCUUGAGAUCGGCCGUUCGACUCGCCCCCGGGAGAUUUUUUCCUCGAGCAA, the nonsense suppression was at most 0.026. Then CUCUCGUUAGCCAAGUUGGUUUACGGCGCAAGACUUUAAUUUAUCACUACGAAAUCUUGAGAUCGGACGUUCGACUCGCCCCCGGGAGAUUUUUUCCUCGAGCAA, with at most 0.026; and CUCUCGGUAGCCAAGUUGGUUCAAGGCGCAAGACCUUAAUUUAUCACUACGAAAUCUUGAGAUCGGGCGAUCGACUCGCCCCCGGGCGUUUUUUUCCUCGAGCAA, with at most 0.026; and CUCUCGGUAUCCAAGUUGGUUUAAGGCGCAAGACUUUAAUUUAUCACUACGAAAUCUUGAGAUCGGGCGUUCGACUCGCUCCCGGGAGAUUUUUUCCUCGAGCAA, with at most 0.026. The figure for UUCUCGGUAUCCAAGUUGGUUUAUGUCGCAAGACUUUAAUUUAUCACUACGAAAUCUUGAGAUCGGGCGAUCGACUCGCCCCCGGGAGAUUUUUUCCUCGAGCAA is at most 0.026. On to CUCUCGGUAACCAAGUUGGUUUAAGGCGCAAGACUUUAAUUUAUCACUACGAAAUCUUGAGAUCGGGCGUUCGACUCGCCCCCGAUAGAUUUUUUCCUCGAGCAA, for which the nonsense suppression was at most 0.026.

Turning to AUCUGGGUAGACAAGUUUGUUUAAGGCGCAAGACUUUAAUUUAUCACUACGAAAUCUUGAGAUCGGGCGUUCGACUCGCCCCCGGGAGAUUUUUUCCUCGAGCAA, the nonsense suppression is at most 0.026. With CUCUCGGUAGUCAAGUUGGUUUAAGGCGCAAGAAUUUAAUUUAUCACUACGAAAUCUUGAGAUCGGGCGUUCGACUCGCCCCCGGGAGAUUUUUUCCUCGAGCAA, the nonsense suppression is at most 0.026. Regarding CUCUCGGGAGCCAAGUUGGUUUAAGGCGCAAGACUUUAAUUUAUCACUACGAAUUCUUGAGGUCGGGCGUUCGACUCGCCCCCGGGAGAUUUUUUCCUCGAGCAA, the nonsense suppression is at most 0.026. On to CUCUCGGUAGCCAAGUUGGUGUAAGGCGCAAGACUUUAAUUUAUCACUACGAAAUCUUGAGAUUGGGCGUUCGUCUCGCCCCCGGGAGAUUUUUUCCUCGAGCAA, for which the nonsense suppression was at most 0.026. Then CUCUCGGUAGCCAAGUUGGUUUAAGGCGCAAGGCUUUAAUUUAUCACUACGAAAUCUUGAGAUCGGGCGUUCGCCUCGCACCCGGGAGAUUUUUUCCUCGAGCAA, with at most 0.026; and CUCUCGGUAGCCAGGUUGGUUUAAGGCGCAAGACUUUAAUUUAUCACUACGAAAUCUUGAGAUCGUGCGUUCGACUCGCCCCCGGGAGAUUUUUUCCUCGAGCAA, with at most 0.026; and CUCUCGGAAGCCUGGUUGGUUUAAGGCGCAAGACUUUAAUUUAUCACUACGAAAUCAAGAGAUCGGGAGUUCGACUCGCCCCAGGGAGAUUUUUUCCUCGAGCAA, with at most 0.026. With CUCUGGGUAGCCAAGUUGGUUUAUGGCGCAAGACUUUAAUUUAUCACUACGAAAUCUUGAGAUCGGGCGUUCGACUCGCCCCCGAGAGAUUUUUUCCUCGAGCAA, the nonsense suppression is at most 0.026.

Regarding CUCUCGGUAGCCAAGUUGAUAUCAGGCGCAAGACUUUAAUUUAUCACUACGAAAUCUUGAGAUCGGGCGUUCGACUCGCCCCCGGGAGAUUUUUUCCUCGAGCAA, the nonsense suppression is at most 0.026. Then CUCUCGGUAGCCAAGUUGGUUUAAGGCGCAAGCCUUUAAUUUAUCACUACGAAAUCUUGAGCUCGCGCGUUCGACUCGCCCCCGGGAGAUUUUUUCCUCGAGCAA, with at most 0.026.

Turning to CUCUCGGUAGCCAAGUUGGUUUAAGGCGCAAUACUUUAAUUUAUCACUACGAAAUCUUGAGAUCACGCGUUCGACUCGCCCCCGGGAGAUUUUUUCCUCGAGCAA, the nonsense suppression was at most 0.026.

On to CUCUCGGUAGCCAAGUGGGUUUAAGGCGCAAAACUUUAAUUUAUCACUACGAAAUCUUGAGAUCGGGCGUUCGACUCGCCCCCGGGAGAUUUUUUCCUCGAGCAA, for which the nonsense suppression is at most 0.026. For CUCUCGGUAGCCAAGUUGGUUUAAGGCGAAAGACUUUAAUUUAUCACUACGAAAUCUUGAUAUCGGGCGUUCGACUCGCCCCCGGGAGAUUUUUUCCUCGAGCAA, the nonsense suppression was at most 0.026.

Turning to CUCUCGGUAGCCAAGUUGGAUUAGGGCGGAAGACUUUAAUUUAUCACUACGAAAUCUUGAGAUCGGGCGUUCGACUCGCCCCCGGGAGAUUUUUUCCUCGAGCAA, the nonsense suppression was at most 0.026. As to CUCUCGGUAGCCAAGUUGGUUUAAGGCGCAUGACUUUAAUUUAUCACUACGAAAUCUUGCAAGCGGGCGUUCGACUCGCCCCCGCGAGAUUUUUUCCUCGAGCAA, the nonsense suppression is at most 0.026. Then CUCUUGGUAGCCAAGUUGGUUUAAGGCGCAAGACUUUAAUUUAUCACUACGAAAUCUUGAGAUCGGGCGUUCGACUCGCCCCCGGCAGAUUUUUUCCUCGAGCAA, with at most 0.026; and CCCUCAGUAGCCAAGUUGGUUUCAGGCGCAAGACUUUAAUUUAUCACUACGAAAUCUUGAGAUCGGGCGUUCGACUCGCCGCCGGGAGAUUUUUUCCUCGAGCAA, with at most 0.026. As to CUCUCGGUUGCCAAGUUGGGUUAAGGCGCACGACUUUAAUUUAUCACUACGAAAUCUUGAGAUCGGGCGUUCGACUCGCCCCCGGGAGAUUUUUUCCUCGAGCAA, the nonsense suppression was at most 0.026.
